Substitutions are numbered along the chain they refer to. Blank lines part the entries; values can stand above or below the binder they belong to.
What was measured:
Test in all cases: cell-based or functional assay
[1] = target: T1, human TrkB receptor (human, UniProt Q16620 32-822)
[2] = target: T1, human TrkB receptor; remark: listed apart in the source
[3] = target: T2, human VEGF-A (human, UniProt P15692-4 27-191)
T2 sequence (looked up): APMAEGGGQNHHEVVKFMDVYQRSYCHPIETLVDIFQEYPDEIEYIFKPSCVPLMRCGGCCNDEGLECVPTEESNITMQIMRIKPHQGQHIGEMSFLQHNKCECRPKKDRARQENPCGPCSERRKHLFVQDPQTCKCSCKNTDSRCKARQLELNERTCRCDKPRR

[4] = target: rat TrkB receptor (rat, UniProt Q63604 32-821)
Chain of UniProt Q63604 (Q63604 32-821): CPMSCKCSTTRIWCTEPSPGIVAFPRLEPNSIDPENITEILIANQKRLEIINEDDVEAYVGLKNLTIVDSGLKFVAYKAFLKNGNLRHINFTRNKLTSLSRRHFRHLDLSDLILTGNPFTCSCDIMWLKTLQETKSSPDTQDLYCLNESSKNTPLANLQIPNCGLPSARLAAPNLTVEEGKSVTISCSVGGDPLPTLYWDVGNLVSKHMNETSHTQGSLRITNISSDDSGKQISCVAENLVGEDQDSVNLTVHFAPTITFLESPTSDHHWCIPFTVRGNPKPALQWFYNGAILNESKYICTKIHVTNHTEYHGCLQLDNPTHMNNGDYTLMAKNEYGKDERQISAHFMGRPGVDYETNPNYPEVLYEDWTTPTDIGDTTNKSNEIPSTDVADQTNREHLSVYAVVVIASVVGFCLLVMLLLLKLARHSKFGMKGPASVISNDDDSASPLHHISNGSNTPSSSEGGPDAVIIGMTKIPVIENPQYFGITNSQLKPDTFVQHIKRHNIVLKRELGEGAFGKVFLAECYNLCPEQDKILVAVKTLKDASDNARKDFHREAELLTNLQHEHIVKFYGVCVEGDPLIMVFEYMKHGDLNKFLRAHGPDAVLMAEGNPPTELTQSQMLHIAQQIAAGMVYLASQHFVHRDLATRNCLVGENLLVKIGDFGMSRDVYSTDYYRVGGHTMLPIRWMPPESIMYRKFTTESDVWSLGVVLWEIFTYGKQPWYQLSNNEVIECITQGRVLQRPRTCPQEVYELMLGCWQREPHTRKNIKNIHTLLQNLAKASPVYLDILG

T1 sequence (Q16620 32-822): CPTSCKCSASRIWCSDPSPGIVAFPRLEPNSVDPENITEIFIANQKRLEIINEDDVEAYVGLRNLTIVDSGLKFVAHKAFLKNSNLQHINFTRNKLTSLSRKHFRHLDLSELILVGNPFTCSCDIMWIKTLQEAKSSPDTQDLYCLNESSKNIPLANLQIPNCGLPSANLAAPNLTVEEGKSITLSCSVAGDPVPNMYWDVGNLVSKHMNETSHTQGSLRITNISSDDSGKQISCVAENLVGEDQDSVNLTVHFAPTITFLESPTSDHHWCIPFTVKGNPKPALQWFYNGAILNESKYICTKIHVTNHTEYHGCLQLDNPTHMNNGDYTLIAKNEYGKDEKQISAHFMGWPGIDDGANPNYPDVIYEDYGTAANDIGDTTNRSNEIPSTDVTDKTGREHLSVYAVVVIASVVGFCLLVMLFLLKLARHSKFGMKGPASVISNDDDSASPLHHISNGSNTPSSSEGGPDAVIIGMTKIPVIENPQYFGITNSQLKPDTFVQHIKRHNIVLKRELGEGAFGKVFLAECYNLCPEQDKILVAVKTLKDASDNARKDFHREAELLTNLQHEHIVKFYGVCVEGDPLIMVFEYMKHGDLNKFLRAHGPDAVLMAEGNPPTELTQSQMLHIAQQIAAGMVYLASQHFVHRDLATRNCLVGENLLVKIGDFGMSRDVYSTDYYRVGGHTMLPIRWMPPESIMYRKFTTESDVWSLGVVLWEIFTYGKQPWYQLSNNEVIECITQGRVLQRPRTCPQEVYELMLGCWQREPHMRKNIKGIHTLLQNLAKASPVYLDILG

B1: TPP-19986 (bispecific antibody, human IgG1, kappa)
light: DIQLTQSPSSLSASVGDRVTITCSASQDISNYLNWYQQKPGKAPKVLIYFTSSLHSGVPSRFSGSGSGTDFTLTISSLQPEDFATYYCQQYSTVPWTFGQGTKVEIKRTVAAPSVFIFPPSDEQLKSGTASVVCLLNNFYPREAKVQWKVDNALQSGNSQESVTEQDSKDSTYSLSSTLTLSKADYEKHKVYACEVTHQGLSSPVTKSFNRGEC
heavy: EVQLVESGGGLVQPGGSLRLSCAASGYDFTHYGMNWVRQAPGKGLEWVGWINTYTGEPTYAADFKRRFTFSLDTSKSTAYLQMNSLRAEDTAVYYCAKYPYYYGTSHWYFDVWGQGTLVTVSSASTKGPSVFPLAPSSKSTSGGTAALGCLVKDYFPEPVTVSWNSGALTSGVHTFPAVLQSSGLYSLSSVVTVPSSSLGTQTYICNVNHKPSNTKVDKRV[in this place human IgG1 Fc with changes]GGGGSGGGGSQVQLVQSGAEVKKPGASVKVSCKASGYTFTNYDIIWVRQAPGQGLEWMGYINPYNDGTKYNEKFKGRVTMTRDTSTSTVYMELSSLRSEDTAVYYCARLLKYRRFRYYAIDYWGQGTTVTVSSGGSEGKSSGSGSESKSTGGSDIQMTQSPSSLSASVGDRVTITCRTSENVYSNLAWYQQKPGKAPKLLIYAASNLQSGVPSRFSGSGSGTDYTFTISSLQPEDIATYYCQHFWGSPFTFGQGTKLEIK
EC50 (pERK) [1]: 0.406 nM | EC50 (pTrkB) [1]: 2 nM

B2: TPP-19987 (bispecific antibody, human IgG1, kappa)
light: B1 light
heavy: EVQLVESGGGLVQPGGSLRLSCAASGYDFTHYGMNWVRQAPGKGLEWVGWINTYTGEPTYAADFKRRFTFSLDTSKSTAYLQMNSLRAEDTAVYYCAKYPYYYGTSHWYFDVWGQGTLVTVSSASTKGPSVFPLAPSSKSTSGGTAALGCLVKDYFPEPVTVSWNSGALTSGVHTFPAVLQSSGLYSLSSVVTVPSSSLGTQTYICNVNHKPSNTKVDKRV[in this place human IgG1 Fc with changes]GGGGSGGGGSGGGGSGGGGSQVQLVQSGAEVKKPGASVKVSCKASGYTFTNYDIIWVRQAPGQGLEWMGYINPYNDGTKYNEKFKGRVTMTRDTSTSTVYMELSSLRSEDTAVYYCARLLKYRRFRYYAIDYWGQGTTVTVSSGGSEGKSSGSGSESKSTGGSDIQMTQSPSSLSASVGDRVTITCRTSENVYSNLAWYQQKPGKAPKLLIYAASNLQSGVPSRFSGSGSGTDYTFTISSLQPEDIATYYCQHFWGSPFTFGQGTKLEIK
EC50 (pERK) [1]: 0.381 nM | EC50 (pTrkB) [1]: 2.16 nM

B4: TPP-22192 (bispecific antibody, human IgG1, kappa)
light: B1 light with D70G
heavy: QVQLVQSGGGLVQPGGSLRLSCAASGYDFTHYGMNWVRQAPGKGLEWVGWINTYTGEPTYAADFKRRFTFSLDTSKSTAYLQMNSLRAEDTAVYYCAKYPYYYGTSHWYFDVWGQGTLVTVSSASTKGPSVFPLAPSSKSTSGGTAALGCLVKDYFPEPVTVSWNSGALTSGVHTFPAVLQSSGLYSLSSVVTVPSSSLGTQTYICNVNHKPSNTKVDKRV[in this place human IgG1 Fc with changes]GGGGSGGGGSDIQMTQSPSSLSASVGDRVTITCRTSENVYSNLAWYQQKPGKAPKLLIYAASNLQSGVPSRFSGSGSGTDYTFTISSLQPEDIATYYCQHFWGSPFTFGQGTKLEIKGGSEGKSSGSGSESKSTGGSQVQLVQSGAEVKKPGASVKVSCKASGYTFTNYDIIWVRQAPGQGLEWMGYINPYNDGTKYNEKFKGRVTMTRDTSTSTVYMELSSLRSEDTAVYYCARLLKYRRFRYYAIDYWGQGTTVTVSS
TrkB-phosphorylation efficacy (AlphaLISA counts) [2]: 5640 AlphaLISA counts | TrkB-phosphorylation efficacy relative to parental clone without CC bridge (%) [2]: 100% | TrkB-phosphorylation potency (EC50, nM) [2]: 12.2 nM | TrkB-phosphorylation efficacy (AlphaLISA counts) [4]: 21200 AlphaLISA counts | TrkB-phosphorylation efficacy relative to parental clone without CC bridge (%) [4]: 100% | TrkB-phosphorylation potency (EC50, nM) [4]: 18.9 nM

Other lines, results leading:

TrkB-phosphorylation efficacy (AlphaLISA counts) [2]: 8410 AlphaLISA counts | TrkB-phosphorylation efficacy relative to parental clone without CC bridge (%) [2]: 149% | TrkB-phosphorylation potency (EC50, nM) [2]: 4.33 nM | concentration for full inhibition of VEGF-induced HRMEC proliferation [3]: 0.25 nM | TrkB-phosphorylation efficacy (AlphaLISA counts) [4]: 25800 AlphaLISA counts | TrkB-phosphorylation efficacy relative to parental clone without CC bridge (%) [4]: 122% | TrkB-phosphorylation potency (EC50, nM) [4]: 3.31 nM
B3: TPP-22216 (bispecific antibody, human IgG1, kappa)
light: B1 light with D70G
heavy: QVQLVQSGGGLVQPGGSLRLSCAASGYDFTHYGMNWVRQAPGKGLEWVGWINTYTGEPTYAADFKRRFTFSLDTSKSTAYLQMNSLRAEDTAVYYCAKYPYYYGTSHWYFDVWGQGTLVTVSSASTKGPSVFPLAPSSKSTSGGTAALGCLVKDYFPEPVTVSWNSGALTSGVHTFPAVLQSSGLYSLSSVVTVPSSSLGTQTYICNVNHKPSNTKVDKRV[in this place human IgG1 Fc with changes]GGGGSGGGGSDIQMTQSPSSLSASVGDRVTITCRTSENVYSNLAWYQQKPGKAPKLLIYAASNLQSGVPSRFSGSGSGTDYTFTISSLQPEDIATYYCQHFWGSPFTFGCGTKLEIKGGSEGKSSGSGSESKSTGGSQVQLVQSGAEVKKPGASVKVSCKASGYTFTNYDIIWVRQAPGQCLEWMGYINPYNDGTKYNEKFKGRVTMTRDTSTSTVYMELSSLRSEDTAVYYCARLLKYRRFRYYAIDYWGQGTTVTVSS

TrkB-phosphorylation efficacy (AlphaLISA counts) [2]: 7610 AlphaLISA counts | TrkB-phosphorylation efficacy relative to parental clone without CC bridge (%) [2]: 115% | TrkB-phosphorylation potency (EC50, nM) [2]: 3.88 nM | concentration for full inhibition of VEGF-induced HRMEC proliferation [3]: 0.25 nM | TrkB-phosphorylation efficacy (AlphaLISA counts) [4]: 21800 AlphaLISA counts | TrkB-phosphorylation efficacy relative to parental clone without CC bridge (%) [4]: 111% | TrkB-phosphorylation potency (EC50, nM) [4]: 2.01 nM
B5: TPP-22204 (bispecific antibody, human IgG1, kappa)
light: B1 light with D70G
heavy: QVQLVQSGGGLVQPGGSLRLSCAASGYDFTHYGMNWVRQAPGKGLEWVGWINTYTGEPTYAADFKRRFTFSLDTSKSTAYLQMNSLRAEDTAVYYCAKYPYYYGTSHWYFDVWGQGTLVTVSSASTKGPSVFPLAPSSKSTSGGTAALGCLVKDYFPEPVTVSWNSGALTSGVHTFPAVLQSSGLYSLSSVVTVPSSSLGTQTYICNVNHKPSNTKVDKRV[in this place human IgG1 Fc with changes]GGGGSGGGGSQVQLVQSGAEVKKPGASVKVSCKASGYTFTNYDIIWVRQAPGQCLEWMGYINPYNDGTKYNEKFKGRVTMTRDTSTSTVYMELSSLRSEDTAVYYCARLLKYRRFRYYAIDYWGQGTTVTVSSGGSEGKSSGSGSESKSTGGSDIQMTQSPSSLSASVGDRVTITCRTSENVYSNLAWYQQKPGKAPKLLIYAASNLQSGVPSRFSGSGSGTDYTFTISSLQPEDIATYYCQHFWGSPFTFGCGTKLEIK
